Out of some 410,000 compounds screened, about 6,400 (1.6%) were called active. This list was built around the results that the source calls inconclusive (neither active nor inactive); the mix of calls is not that of the screen. Calls follow the shape of the dose curve; as a rule, active = well fitted inhibition curve with a large enough effect; inconclusive = small, poorly fitted or top-dose-only effect; inactive = no such curve, though single readings can be large or run the other way. Potencies of inconclusive entries are left out as doubtful fits.
These molecules were tested against Glucagon-like peptide 1 receptor (Homo sapiens) (UniProt P43220) (assay: qHTS of GLP-1 Receptor Inverse Agonists (Inhibition Mode)). Conditions: HEK293 GLP-1R CRE-luciferase, luminescence, 24 h, GLP-1R form is constitutively active; activity change, negative = inhibition: at 38.3 µM (top of the series) unless noted.
Chain of UniProt P43220 (P43220 whole entry, looked up): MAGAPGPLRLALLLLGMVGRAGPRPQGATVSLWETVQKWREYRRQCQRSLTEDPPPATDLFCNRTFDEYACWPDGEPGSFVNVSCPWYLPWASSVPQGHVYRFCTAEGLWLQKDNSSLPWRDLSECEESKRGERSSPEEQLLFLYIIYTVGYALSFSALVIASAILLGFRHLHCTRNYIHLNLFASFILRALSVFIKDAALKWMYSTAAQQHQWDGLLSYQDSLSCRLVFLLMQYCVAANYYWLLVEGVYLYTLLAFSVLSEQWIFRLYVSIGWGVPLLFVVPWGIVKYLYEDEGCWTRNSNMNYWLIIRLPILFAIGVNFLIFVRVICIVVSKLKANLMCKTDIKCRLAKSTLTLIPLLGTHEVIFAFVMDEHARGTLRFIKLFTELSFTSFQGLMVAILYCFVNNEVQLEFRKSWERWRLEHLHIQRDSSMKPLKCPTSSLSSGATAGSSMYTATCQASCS
In short: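 Seeding at 200 cells/uL, 12 h culture, 24 hr compound treatment, then luciferase reagent and a luminescence read; cells are HEK293 stably expressing a constitutively active GLP-1R plus cAMP-responsive luciferase.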
In the case of CCCS(=O)(=O)c1nc(S(=O)(=O)c2ccc(C)cc2)c(N2CCN(CC)CC2)s1, the “activity change, negative = inhibition” value is reported as inactive: -21.2%. In the case of O=C(NC(=S)N(CCc1ccccc1)CCc1ccccc1)c1ccco1, the Potency is reported as inconclusive [inhibitor, single point]. For C=CCNC(=S)N/N=C/c1ccc(-c2cc(Cl)ccc2Cl)o1, the “activity change, negative = inhibition” value was inactive: -24.9%. With O=C(N/N=C/c1ccccn1)c1ccc([N+](=O)[O-])cc1Cl the Potency was inconclusive [inhibitor, single point]. For CCCCN(CC)CCCNC(=O)c1c(C)oc2ncnc(N3CCOCC3)c12, the “activity change, negative = inhibition” value was inactive: 1.22%. With CCOP(=O)(Cc1ccc(C(C)(C)CC(C)=O)o1)OCC the “activity change, negative = inhibition” value was inactive: 2.68%. For COc1cccc(CN(C)C(=O)c2ccc(Cl)c(S(=O)(=O)N3CCCCCC3)c2)c1OC, the Potency was inconclusive [inhibitor, partial curve, poor fit]. For Cc1cccc(OCC(=O)NCC(=O)N/N=C/c2ccc(O)cc2O)c1, the Potency was inconclusive [inhibitor, partial curve, poor fit]. For O=C(NC1CCCCC1)c1c2c(nc3ccccc13)CCC2, the Potency was inconclusive [inhibitor, partial curve, poor fit]. COc1c(F)c(F)c(C(=O)Nc2ccc(N3CCN(Cc4ccccc4)CC3)cc2)c(F)c1F was tested, and the Potency was inconclusive [inhibitor, full curve, poor fit]. In the case of CCCCC(=O)NC(c1cccc([N+](=O)[O-])c1)c1c(OC(C)=O)ccc2ccccc12 (stereo not drawn), the Potency is reported as inconclusive [inhibitor, partial curve, poor fit]. In the case of Cc1nc(Nc2c(Cl)cccc2Cl)sc1C(=O)Nc1ccccc1, the Potency is reported as inconclusive [inhibitor, partial curve]. With Cc1ccc(NCc2cccn2-c2nnc(N3CCC(C(=O)NCCc4ccc(Cl)cc4)CC3)s2)cc1 the Potency was active: 10 µM. In the case of CCn1cnc2cc(NCc3nc4ccccc4n3Cc3ccccc3)ccc21, the Potency is reported as inconclusive [inhibitor, full curve]. CCOC(=O)N1CCN(CC(O)COc2cc(C)cc(C)c2)CC1 (stereo not drawn) was tested, and the Potency was inconclusive [inhibitor, single point]. With Cc1ccccc1OCC(=O)NNC(=S)NC(=O)c1ccco1 the Potency was inconclusive [inhibitor, single point]. For O=C(Nc1ccc(Br)cc1F)c1ccc2c(c1)OCCO2, the Potency was inconclusive [inhibitor, single point]. CCCCNC(=O)c1onc(CSc2ccc(Cl)cc2)c1C(=O)O was tested, and the Potency was inconclusive [inhibitor, single point]. For CCc1ccccc1NC(=O)CN(C)C(=O)Cn1ncc(Cl)c(Cl)c1=O, the Potency was inconclusive [inhibitor, single point]. With [O-]c1n[n+](-c2ccc(Cl)cc2Cl)cc2ccccc12 the Potency was inconclusive [inhibitor, partial curve, poor fit]. With CN(C)c1ccc(/C=C(\C#N)c2ccccc2)cc1 the Potency was inconclusive [inhibitor, partial curve, poor fit]. With Cc1cccc(N2CCN(C(c3ccccc3)c3nnnn3CC3CCCO3)CC2)c1C (stereo not drawn) the Potency was inconclusive [inhibitor, partial curve, poor fit]. With CC(C)Oc1ccc(/C=C/C(=O)NCC2COc3ccccc3O2)cc1 (stereo not drawn) the Potency was inconclusive [inhibitor, single point]. With Cc1nc(N2CCN(Cc3ccc(Cl)cc3)CC2)c2oc3ccccc3c2n1 the Potency was inconclusive [inhibitor, partial curve, poor fit]. In the case of COc1ccc2c(c1)c(CC(=O)Nc1ccc(C)cc1)c(C)n2C(=O)c1ccc(Cl)cc1, the Potency is reported as inconclusive [inhibitor, full curve, poor fit]. In the case of CC(OC(=O)Cc1n[nH]c(=O)c2ccccc12)C(=O)Nc1cc(Cl)cc(Cl)c1 (stereo not drawn), the Potency is reported as inconclusive [inhibitor, partial curve, poor fit]. In the case of Oc1ccc2ccccc2c1N=Nc1ccccc1F, the “activity change, negative = inhibition” value is reported as inactive: 16.3%. O=C(Nc1ccncc1)C1CCN(S(=O)(=O)c2ccccc2C(F)(F)F)CC1 was tested, and the “activity change, negative = inhibition” value was inactive: -23.8%. In the case of CCc1nn(CC(=O)NC2CC2)c(=O)c2cc3c(OC)cccc3n12, the “activity change, negative = inhibition” value is reported as inactive: 1.38%. For COc1cc(C(=O)N2CCCCC2c2cc(C(=O)Nc3ccccc3Cl)no2)cc(OC)c1C (stereo not drawn), the Potency was inconclusive [inhibitor, single point]. CS(=O)(=O)N(CC(=O)N1CCc2ccccc2C1)c1cccc([N+](=O)[O-])c1 was tested, and the “activity change, negative = inhibition” value was inactive: 0.387%. For CCCCN(C)c1c(C)nc2ccc(C(=O)NCc3cccs3)cn12, the Potency was inconclusive [inhibitor, single point]. With CCOC(=O)C1(Cc2cccc(OC)c2)CCN(Cc2cccc3cnccc23)CC1 the Potency was inconclusive [inhibitor, partial curve, poor fit]. With O=C(NCC1COc2ccccc2O1)C1CCCN(S(=O)(=O)c2cccc3nsnc23)C1 (stereo not drawn) the Potency was inconclusive [inhibitor, single point]. In the case of CCCCOc1ccc(CNC(=O)c2cccc(NC(=O)N3CCSc4ncccc43)c2)cc1, the Potency is reported as inconclusive [inhibitor, partial curve, poor fit]. In the case of O=C(NCc1ccccc1)Nc1cccc2ccccc12, the “activity change, negative = inhibition” value is reported as inactive: 1.46%. For COc1cc(O)c(C(CC(=O)N2CCN(c3ccccc3)CC2)c2ccc3c(c2)OCO3)c(OC)c1 (stereo not drawn), the Potency was inconclusive [inhibitor, partial curve, poor fit]. O=C(CCl)Nc1cn(-c2ccccc2)nc1-c1ccccc1 was tested, and the Potency was inconclusive [inhibitor, single point]. With Cc1c(C(=O)NCc2ccc(Cl)cc2)oc2ccc3c(c12)C(=O)CC(C)(C)O3 the Potency was inconclusive [inhibitor, single point]. In the case of COc1ccccc1Nc1nc(-c2c(C)[nH]c3ccccc23)cs1, the Potency is reported as inconclusive [inhibitor, partial curve, poor fit]. CCOC(=O)c1c(N)sc(C(=O)Nc2ccccc2)c1C was tested, and the Potency was inconclusive [inhibitor, single point]. In the case of CCOc1ccccc1Nc1ncnc2c1cnn2-c1ccc(C)cc1, the Potency is reported as inconclusive [inhibitor, single point]. For COc1ccc(CN(C(=O)CN2C(=O)NC3(CCC(C)CC3)C2=O)C(C)Cc2cccs2)cc1 (stereo not drawn), the Potency was inconclusive [inhibitor, single point]. For Cc1nnc(Sc2cc(C(=O)NCCCN(C)Cc3ccccc3)c3ccccc3n2)s1, the Potency was inconclusive [inhibitor, single point]. In the case of O=C(NCCOc1ccccc1F)c1ccc2c(=O)n3c(nc2c1)CCC3, the Potency is reported as inconclusive [inhibitor, single point]. For Cc1ccc(S(=O)(=O)N2CCN(Cc3cc(C(C)C)ccc3O)CC2)cc1, the Potency was inconclusive [inhibitor, partial curve, poor fit]. With COC(=O)[C@@H](NC(=O)N1CCN(c2cccc(C(F)(F)F)c2)CC1)C(C)C the Potency was inconclusive [inhibitor, single point]. C=CCNC(=S)N/N=C/c1ccc(C(F)(F)F)cc1 was tested, and the Potency was inconclusive [inhibitor, partial curve, poor fit]. For CC1(C)CC(=O)C=C(C#CC2(O)CCCCC2)C1, the Potency was inconclusive [inhibitor, single point]. In the case of CC1CN(C(=O)N2CCC(C(=O)NCCCc3ccccc3)CC2)c2cc(Cl)ccc2O1 (stereo not drawn), the Potency is reported as inconclusive [inhibitor, single point]. CN1C(=O)[C@H]2[C@@H](/C=C/c3ccccc3)N3C(=O)CN(Cc4ccc(-c5ccccc5)cc4)C(=O)[C@@]3(Cc3ccccc3)[C@H]2C1=O was tested, and the Potency was inconclusive [inhibitor, single point]. O=C(NCCc1ccc(F)cc1)c1ccc(Cl)c(S(=O)(=O)N2CCOCC2)c1 was tested, and the Potency was inconclusive [inhibitor, single point]. In the case of COCc1c(C(=O)N(C)Cc2ccccc2N2CCCC2)oc2ccccc12, the Potency is reported as inconclusive [inhibitor, single point]. With Nc1nc2ccccc2cc1C(=O)NCCCCc1ccccc1 the Potency was inconclusive [inhibitor, full curve, poor fit]. For CCC(c1nnnn1-c1ccc2c(c1)OCCO2)N1CCN(c2cc(C)ccc2C)CC1 (stereo not drawn), the Potency was inconclusive [inhibitor, single point]. For O=C1CC(c2ccccc2)Oc2ccc(Cl)cc21 (stereo not drawn), the Potency was inconclusive [inhibitor, single point]. In the case of O=C(NNc1ccc(-c2csnn2)cc1)c1ccccc1C(F)(F)F, the Potency is reported as inconclusive [inhibitor, full curve, poor fit]. In the case of C=CCSc1nc2ccccc2n1C(=O)/C=C/c1cc(OC)c(OC)c(OC)c1, the “activity change, negative = inhibition” value is reported as inactive: 0%. With O=C(N/N=C/c1cccc(O)c1)c1ccc(COc2cccc3cccnc23)cc1 the “activity change, negative = inhibition” value was inactive: 7.38%. In the case of O=C(NC1CCCCC1)N1CCCC(c2nc(-c3cccs3)no2)C1 (stereo not drawn), the Potency is reported as inconclusive [inhibitor, partial curve]. With CCOC(=O)N1CCN(CC(O)COC2CC(C)CCC2C(C)C)CC1 (stereo not drawn) the Potency was inconclusive [inhibitor, partial curve, poor fit]. In the case of CCN(C(=O)COc1cc(=O)n(CC)c2ccccc12)c1cc(Cl)ccc1OC, the Potency is reported as inconclusive [inhibitor, single point]. In the case of O=C(NCC1CCCN(Cc2cccc(C(F)(F)F)c2)C1)c1ccc(F)cc1 (stereo not drawn), the Potency is reported as inconclusive [inhibitor, partial curve, poor fit].
% is scaled to controls: 0 for no effect and ±100 for the full control effect; potency is read from the fitted curve at half-maximal effect; tags tell the direction and shape of the fitted curve.
Also: nearly all actives have a fitted effect of over 55% in size.
